The campaign covered roughly 48,000 compounds. About 550 (1.1%) were called active. Inconclusive results (about 4%) are left out. Rule as the data show it: active = potency below about 15 µM; inconclusive = mostly about 16 µM to 33 µM; inactive = weaker than that. Some of the results follow.
target: Lysosomal acid glucosylceramidase (Homo sapiens) (UniProt P04062); experiment: Glucocerebrosidase; conditions: purified enzyme, resorufin glucoside fluorescence (screen aimed at inhibitors), 20 min;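 also: the screen sought inhibitors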
Procedure, shortened: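 Normal human glucocerebrosidase (0.2 nM final) was assayed with resorufin β-D-glucopyranoside (30 uM final) in 50mM citric acid/KH2PO4, 10mM sodium taurocholate, 0.01% tween-20, pH 5.9. Compounds were titrated; fluorescence (Ex 548, Em 600) read after 20 min at RT.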
Potency is read from the fitted curve at half-maximal effect.

Sequence of UniProt P04062 (P04062 whole entry, looked up): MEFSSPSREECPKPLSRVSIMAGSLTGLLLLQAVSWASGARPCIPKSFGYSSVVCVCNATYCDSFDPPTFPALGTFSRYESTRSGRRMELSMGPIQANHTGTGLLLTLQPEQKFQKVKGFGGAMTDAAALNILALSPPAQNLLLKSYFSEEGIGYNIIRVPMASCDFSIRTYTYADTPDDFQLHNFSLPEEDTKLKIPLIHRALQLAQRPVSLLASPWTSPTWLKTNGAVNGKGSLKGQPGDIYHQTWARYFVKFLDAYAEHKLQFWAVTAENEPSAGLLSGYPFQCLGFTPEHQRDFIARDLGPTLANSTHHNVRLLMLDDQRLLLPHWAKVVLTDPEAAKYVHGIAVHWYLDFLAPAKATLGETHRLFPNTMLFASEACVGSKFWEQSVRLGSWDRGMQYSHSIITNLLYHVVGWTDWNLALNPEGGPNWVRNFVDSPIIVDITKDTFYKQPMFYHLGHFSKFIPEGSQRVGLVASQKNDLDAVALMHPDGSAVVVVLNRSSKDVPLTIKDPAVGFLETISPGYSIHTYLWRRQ

Row | Structure (SMILES) | Potency
1 | O=C(c1ccncc1)N1C2C=CC(C2)C1(C(F)(F)F)C(F)(F)F (stereo not drawn) | inactive: > 76.9 µM
2 | Cn1cnnc1SCNC(=O)C(F)(F)F | inactive: > 76.9 µM
3 | c1ccc(Cn2nnnc2C(c2ccncc2)N2CCOCC2)cc1 (stereo not drawn) | inactive: > 76.9 µM
4 | COC(=O)[C@H](CCSC)NC(=O)Nc1ccc(C)c(C)c1 | inactive: > 76.9 µM
5 | O=C(O)C1CCN(S(=O)(=O)N2CCOCC2)CC1 | inactive: > 76.9 µM
6 | NC(=O)NC(=O)CSc1cccc(C(F)(F)F)c1 | inactive: > 76.9 µM
7 | Cc1ccc(-c2cc(C(=O)NCC3CCCO3)no2)cc1 (stereo not drawn) | inactive: > 76.9 µM
8 | Fc1ccccc1CSc1nnc(-c2cccs2)o1 | inactive: > 76.9 µM
9 | Cc1ccc(-c2nnc(N3CCN(C(=O)c4ccco4)CC3)c3ccccc23)cc1 | inactive: > 76.9 µM
10 | CC(C)C(=O)NCCn1ccc2ccccc21 | inactive: > 76.9 µM
11 | CCN(CC)C(=O)C1=C(C)Nc2nnnn2C1c1cccnc1 (stereo not drawn) | inactive: > 76.9 µM
12 | CC(C)Cc1nc2oc3c(=O)[nH]cnc3c2c2c1CCC2 | inactive: > 76.9 µM
13 | CS(=O)(=O)c1nc(-c2ccco2)cc(C(F)(F)F)n1 | inactive: > 76.9 µM
14 | O=C(NC1CCCC1)C(c1ccncc1)N(Cc1cccs1)C(=O)c1csnn1 (stereo not drawn) | inactive: > 76.9 µM
15 | Cc1ccc(S(=O)(=O)NCC(=O)OCC(=O)Nc2ncc(Cl)cc2Cl)cc1 | inactive: > 76.9 µM
16 | CCCN1C(=O)C(O)(C/C(C)=N/O)c2ccccc21 (stereo not drawn) | inactive: > 76.9 µM
17 | COc1ccccc1-c1c(C#N)c(SCC(=O)N2CCCC2)nc(C)c1C(N)=O | inactive: > 76.9 µM
18 | COc1ccc2nc(Nc3nc(C)c(C(C)=O)s3)sc2c1 | inactive: > 76.9 µM
19 | Cn1c(SCC(=O)N2CCc3ccccc32)nnc1C1CC1 | inactive: > 76.9 µM
20 | COc1cccc(CNC(=O)C2CCN(Cc3cnn(-c4ccccc4)c3-n3cccc3)CC2)c1 | inactive: > 76.9 µM

Row | Structure (SMILES) | Potency
21 | Cc1cc(NC(=O)CSc2nc3c(c(=O)n2-c2ccc(Cl)cc2)SCC3)no1 | active: 13.7 µM
22 | NS(=O)(=O)c1ccc(CNC(=O)C2CCCCC2)cc1 | inactive: > 76.9 µM
23 | O=C(OCCn1cncn1)c1cc2ccccc2oc1=O | inactive: > 76.9 µM
24 | CC(=O)Nc1nonc1NC(=O)CSc1nc2ccccc2o1 | inactive: > 76.9 µM
25 | CC(=O)Nc1nonc1NC(=O)CSc1ncn[nH]1 | inactive: > 76.9 µM
26 | Cc1nnc(SCCn2c(Br)nc3c2c(=O)n(C)c(=O)n3C)s1 | inactive: > 76.9 µM
27 | CCOC(=O)c1ccccc1NC(=O)COC(=O)c1ccc(C)c(S(=O)(=O)N2CCOCC2)c1 | inactive: > 76.9 µM
28 | COc1cccc(S(=O)(=O)Nc2ccc(C(=O)N3CCN(C(=O)c4ccco4)CC3)cc2)c1 | inactive: > 15.4 µM
29 | COc1ccc(S(=O)(=O)N2CCCC(C(=O)O)C2)cc1Cl (stereo not drawn) | inactive: > 76.9 µM
30 | CCOC(=O)C1C(=O)C(C(=O)OCC)C(c2cccnc2)NC1c1cccnc1 (stereo not drawn) | inactive: > 76.9 µM
31 | COc1ccc(CN(Cc2cc3cccc(C)c3[nH]c2=O)C(=O)N(C)C)cc1 | inactive: > 76.9 µM
32 | COc1cccc(CNC(=O)C2CCN(S(=O)(=O)N3CCCC3)CC2)c1 | inactive: > 76.9 µM
33 | CC1CN(c2nn3c(=O)c4ccccc4nc3c3ccccc23)CC(C)O1 (stereo not drawn) | inactive: > 76.9 µM
34 | O=C(NC1CCCCCCC1)C1CCN(c2nc3ccccc3o2)CC1 | inactive: > 76.9 µM
35 | COc1ccc(Cn2nnnc2C(c2cc3ccc(OC)cc3[nH]c2=O)N2CCCCCC2)cc1 (stereo not drawn) | inactive: > 76.9 µM
36 | CC(=O)Nc1c(C(=O)c2ccccc2)oc2ccccc12 | inactive: > 76.9 µM
37 | O=C(O)CCCC(=O)Nc1cccc2cccnc12 | inactive: > 76.9 µM
38 | C=CCNC(=O)CN1CCC(O)(c2ccc(F)cc2)CC1 | inactive: > 76.9 µM
39 | O=C(c1ccco1)N1CCN(/C(=N/S(=O)(=O)c2cccs2)c2ccccc2Cl)CC1 | inactive: > 76.9 µM
40 | C/C=C/Cn1c(SC)nc2c1c(=O)[nH]c(=O)n2C | inactive: > 76.9 µM

Row | Structure (SMILES) | Potency
41 | COc1ccc(-c2noc(CSc3nc4ccccc4c(=O)n3-c3ccccc3)n2)cc1 | inactive: > 76.9 µM
42 | COc1cc(C2C(C(=O)OC(C)C)=C(C)Nc3[nH]c(=O)[nH]c(=O)c32)ccc1O (stereo not drawn) | inactive: > 76.9 µM
43 | CCC(=O)N(Cc1cc2cc(OC)ccc2[nH]c1=O)c1ccccc1C | inactive: > 76.9 µM
44 | CCc1ccc(-c2nc(CSCC(=O)N3CCN(c4ccccn4)CC3)c(C)o2)cc1 | inactive: > 76.9 µM
45 | Cc1ccc(SCc2[nH]nc3c2C(c2ccco2)C(C#N)=C(N)O3)cc1 (stereo not drawn) | inactive: > 76.9 µM
46 | O=C(Nc1cccc(Cl)c1N1CCCC1)c1cc2ccccc2o1 | inactive: > 76.9 µM
47 | CC(=O)Nc1ccc2nc(C3CCCCC3)[nH]c2c1 | inactive: > 76.9 µM
48 | CCC(=O)c1ccc(OCCSc2ncccn2)cc1 | inactive: > 76.9 µM
49 | CC(=O)c1c(O)cc(C)n(Nc2nc(C)cc(C)n2)c1=O | inactive: > 76.9 µM
50 | CCOCC(=O)Nc1nnc(COCC)s1 | inactive: > 76.9 µM
51 | Cc1cc(C)n2ncc(C(=O)NCc3cccnc3)c2n1 | inactive: > 76.9 µM
52 | COc1ccccc1N1CCN(c2cc(N3CCCC3)nc(C)n2)CC1 | inactive: > 76.9 µM
53 | Nc1c(S(=O)(=O)c2cccs2)c2nc3ccccc3nc2n1Cc1cccs1 | inactive: > 76.9 µM
54 | Cc1cc(NC(=O)CSc2nc(C(C)C)nc3sc4c(c23)CCCC4)no1 | inactive: > 76.9 µM
55 | O=C(CCS(=O)(=O)c1cccc2nonc12)Nc1cccc2c1CCCC2 | inactive: > 76.9 µM
56 | CCOC(=O)c1cc(-c2ccncc2)nc2c1c(C)nn2C | inactive: > 76.9 µM
57 | CCc1c(C(=O)Nc2ccc(OC)c(Cl)c2)[nH]c(C)c1C(C)=O | inactive: > 76.9 µM
58 | O=C(Nc1ccc(Cl)cn1)c1cc(S(=O)(=O)N2CCCCC2)ccc1Cl | inactive: > 76.9 µM

Source: PubChem BioAssay AID360 (National Center for Advancing Translational Sciences (NCATS), 2006)
